# Test results published in the supplement of paper PMC8728848.
# The list shows a part of the results.
# Assays:
# Experiment in all cases: glycan array binding signal (z-score within array); higher = stronger binding
# Conditions in all cases: glycan notation: IUPAC condensed, linker removed
# [1] = biological target: Gal(b1-4)GlcNAc(b1-2)[Gal(b1-4)GlcNAc(b1-6)]Man(a1-6)[Gal(b1-4)GlcNAc(b1-2)Man(a1-3)]Man(b1-4)GlcNAc(b1-4)[Fuc(a1-6)]GlcNAc
# How it was run: (§1)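 Negative Z-scores can be read as non-binding. The Z-score is calculated within each array and then averaged across arrays of one protein sequence at different concentrations or buffers and across linkers. Arrays, 3228 in all, were curated from the Consortium for Functional Glycomics database and kept only where the protein sequence was available.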
# [2] = biological target: Gal(b1-4)GlcNAc(b1-2)[Gal(b1-4)GlcNAc(b1-6)]Man(a1-6)[GlcNAc(b1-4)][Gal(b1-4)GlcNAc(b1-2)Man(a1-3)]Man(b1-4)GlcNAc(b1-4)GlcNAc
# How it was run: as §1
# [3] = biological target: Gal(b1-4)GlcNAc(b1-2)[Gal(b1-4)GlcNAc(b1-6)]Man(a1-6)[GlcNAc(b1-4)][Gal(b1-4)GlcNAc(b1-2)[Gal(b1-4)GlcNAc(b1-4)]Man(a1-3)]Man(b1-4)GlcNAc(b1-4)[Fuc(a1-6)]GlcNAc
# How it was run: as §1
# [4] = biological target: Gal(b1-4)GlcNAc(b1-3)Gal(b1-3)GalNAc
# How it was run: as §1
# [5] = biological target: Gal(b1-4)GlcNAc(b1-3)Gal(b1-3)GlcNAc
# How it was run: as §1
# [6] = biological target: Gal(b1-4)GlcNAc(b1-3)Gal(b1-4)Glc
# How it was run: as §1
# [7] = biological target: Gal(b1-4)GlcNAc(b1-3)Gal(b1-4)GlcNAc
# How it was run: as §1
# [8] = biological target: Gal(b1-4)GlcNAc(b1-3)Gal(b1-4)GlcNAc(b1-2)Man(a1-3)[Gal(b1-4)GlcNAc(b1-3)Gal(b1-4)GlcNAc(b1-2)Man(a1-6)]Man(b1-4)GlcNAc(b1-4)GlcNAc
# How it was run: as §1
# [9] = biological target: Gal(b1-4)GlcNAc(b1-3)Gal(b1-4)GlcNAc(b1-2)Man(a1-3)[Gal(b1-4)GlcNAc(b1-3)Gal(b1-4)GlcNAc(b1-2)Man(a1-6)]Man(b1-4)GlcNAc(b1-4)[Fuc(a1-6)]GlcNAc
# How it was run: as §1
# [10] = biological target: Gal(b1-4)GlcNAc(b1-3)Gal(b1-4)GlcNAc(b1-2)[Gal(b1-4)GlcNAc(b1-3)Gal(b1-4)GlcNAc(b1-6)]Man(a1-6)[Gal(b1-4)GlcNAc(b1-3)Gal(b1-4)GlcNAc(b1-2)Man(a1-3)]Man(b1-4)GlcNAc(b1-4)GlcNAc
# How it was run: as §1
# [11] = biological target: Gal(b1-4)GlcNAc(b1-3)Gal(b1-4)GlcNAc(b1-2)[Gal(b1-4)GlcNAc(b1-3)Gal(b1-4)GlcNAc(b1-6)]Man(a1-6)[Gal(b1-4)GlcNAc(b1-3)Gal(b1-4)GlcNAc(b1-2)Man(a1-3)]Man(b1-4)GlcNAc(b1-4)[Fuc(a1-6)]GlcNAc
# How it was run: as §1
# [12] = biological target: Gal(b1-4)GlcNAc(b1-3)Gal(b1-4)GlcNAc(b1-3)Gal(b1-4)GlcNAc
# How it was run: as §1
# [13] = biological target: Gal(b1-4)GlcNAc(b1-3)Gal(b1-4)GlcNAc(b1-3)Gal(b1-4)GlcNAc(b1-2)Man(a1-3)[Gal(b1-4)GlcNAc(b1-3)Gal(b1-4)GlcNAc(b1-3)Gal(b1-4)GlcNAc(b1-2)Man(a1-6)]Man(b1-4)GlcNAc(b1-4)GlcNAc
# How it was run: as §1
# [14] = biological target: Gal(b1-4)GlcNAc(b1-3)Gal(b1-4)GlcNAc(b1-3)Gal(b1-4)GlcNAc(b1-2)Man(a1-3)[Gal(b1-4)GlcNAc(b1-3)Gal(b1-4)GlcNAc(b1-3)Gal(b1-4)GlcNAc(b1-2)Man(a1-6)]Man(b1-4)GlcNAc(b1-4)[Fuc(a1-6)]GlcNAc
# How it was run: as §1
# [15] = biological target: Gal(b1-4)GlcNAc(b1-3)Gal(b1-4)GlcNAc(b1-3)Gal(b1-4)GlcNAc(b1-2)[Gal(b1-4)GlcNAc(b1-3)Gal(b1-4)GlcNAc(b1-3)Gal(b1-4)GlcNAc(b1-6)]Man(a1-6)[Gal(b1-4)GlcNAc(b1-3)Gal(b1-4)GlcNAc(b1-3)Gal(b1-4)GlcNAc(b1-2)Man(a1-3)]Man(b1-4)GlcNAc(b1-4)[Fuc(a1-6)]GlcNAc
# How it was run: as §1
# [16] = biological target: Gal(b1-4)GlcNAc(b1-3)Gal(b1-4)GlcNAc(b1-3)Gal(b1-4)GlcNAc(b1-3)Gal(b1-4)GlcNAc(b1-2)Man(a1-3)[Gal(b1-4)GlcNAc(b1-3)Gal(b1-4)GlcNAc(b1-3)Gal(b1-4)GlcNAc(b1-3)Gal(b1-4)GlcNAc(b1-2)Man(a1-6)]Man(b1-4)GlcNAc(b1-4)GlcNAc
# How it was run: as §1
# [17] = biological target: Gal(b1-4)GlcNAc(b1-3)Gal(b1-4)GlcNAc(b1-3)Gal(b1-4)GlcNAc(b1-3)Gal(b1-4)GlcNAc(b1-2)Man(a1-3)[Gal(b1-4)GlcNAc(b1-3)Gal(b1-4)GlcNAc(b1-3)Gal(b1-4)GlcNAc(b1-3)Gal(b1-4)GlcNAc(b1-2)Man(a1-6)]Man(b1-4)GlcNAc(b1-4)[Fuc(a1-6)]GlcNAc
# How it was run: as §1
# [18] = biological target: Gal(b1-4)GlcNAc(b1-3)Gal(b1-4)GlcNAc(b1-3)Gal(b1-4)GlcNAc(b1-3)Gal(b1-4)GlcNAc(b1-2)[Gal(b1-4)GlcNAc(b1-3)Gal(b1-4)GlcNAc(b1-3)Gal(b1-4)GlcNAc(b1-3)Gal(b1-4)GlcNAc(b1-6)]Man(a1-6)[Gal(b1-4)GlcNAc(b1-3)Gal(b1-4)GlcNAc(b1-3)Gal(b1-4)GlcNAc(b1-3)Gal(b1-4)GlcNAc(b1-2)Man(a1-3)]Man(b1-4)GlcNAc(b1-4)[Fuc(a1-6)]GlcNAc
# How it was run: as §1
# [19] = biological target: Gal(b1-4)GlcNAc(b1-3)Gal(b1-4)GlcNAc(b1-3)Gal(b1-4)GlcNAc(b1-3)Gal(b1-4)GlcNAc(b1-3)Gal(b1-4)GlcNAc(b1-2)Man(a1-3)[Gal(b1-4)GlcNAc(b1-3)Gal(b1-4)GlcNAc(b1-3)Gal(b1-4)GlcNAc(b1-3)Gal(b1-4)GlcNAc(b1-3)Gal(b1-4)GlcNAc(b1-2)Man(a1-6)]Man(b1-4)GlcNAc(b1-4)GlcNAc
# How it was run: as §1
# [20] = biological target: Gal(b1-4)GlcNAc(b1-3)Gal(b1-4)GlcNAc(b1-3)Gal(b1-4)GlcNAc(b1-3)Gal(b1-4)GlcNAc(b1-3)Gal(b1-4)GlcNAc(b1-2)Man(a1-3)[Gal(b1-4)GlcNAc(b1-3)Gal(b1-4)GlcNAc(b1-3)Gal(b1-4)GlcNAc(b1-3)Gal(b1-4)GlcNAc(b1-3)Gal(b1-4)GlcNAc(b1-2)Man(a1-6)]Man(b1-4)GlcNAc(b1-4)[Fuc(a1-6)]GlcNAc
# How it was run: as §1
# [21] = biological target: Gal(b1-4)GlcNAc(b1-3)Gal(b1-4)GlcNAc(b1-3)Gal(b1-4)GlcNAc(b1-3)Gal(b1-4)GlcNAc(b1-3)Gal(b1-4)GlcNAc(b1-2)[Gal(b1-4)GlcNAc(b1-3)Gal(b1-4)GlcNAc(b1-3)Gal(b1-4)GlcNAc(b1-3)Gal(b1-4)GlcNAc(b1-3)Gal(b1-4)GlcNAc(b1-6)]Man(a1-6)[Gal(b1-4)GlcNAc(b1-3)Gal(b1-4)GlcNAc(b1-3)Gal(b1-4)GlcNAc(b1-3)Gal(b1-4)GlcNAc(b1-3)Gal(b1-4)GlcNAc(b1-2)Man(a1-3)]Man(b1-4)GlcNAc(b1-4)[Fuc(a1-6)]GlcNAc
# How it was run: as §1
# [22] = biological target: Gal(b1-4)GlcNAc(b1-3)Gal(b1-4)GlcNAc(b1-3)Gal(b1-4)GlcNAc(b1-3)Gal(b1-4)GlcNAc(b1-3)Gal(b1-4)GlcNAc(b1-3)Gal(b1-4)GlcNAc(b1-2)Man(a1-3)[Gal(b1-4)GlcNAc(b1-3)Gal(b1-4)GlcNAc(b1-3)Gal(b1-4)GlcNAc(b1-3)Gal(b1-4)GlcNAc(b1-3)Gal(b1-4)GlcNAc(b1-3)Gal(b1-4)GlcNAc(b1-2)Man(a1-6)]Man(b1-4)GlcNAc(b1-4)GlcNAc
# How it was run: as §1
# [23] = biological target: Gal(b1-4)GlcNAc(b1-3)Gal(b1-4)GlcNAc(b1-3)GalNAc
# How it was run: as §1
# [24] = biological target: Gal(b1-4)GlcNAc(b1-3)Gal(b1-4)GlcNAc(b1-3)[Gal(b1-4)GlcNAc(b1-3)Gal(b1-4)GlcNAc(b1-6)]GalNAc
# How it was run: as §1
# [25] = biological target: Gal(b1-4)GlcNAc(b1-3)Gal(b1-4)GlcNAc(b1-6)[Gal(b1-3)]GalNAc
# How it was run: as §1
# [26] = biological target: Gal(b1-4)GlcNAc(b1-3)Gal(b1-4)[Fuc(a1-3)]GlcNAc(b1-3)Gal(b1-4)[Fuc(a1-3)]GlcNAc
# How it was run: as §1
# [27] = biological target: Gal(b1-4)GlcNAc(b1-3)GalNAc
# How it was run: as §1
# [28] = biological target: Gal(b1-4)GlcNAc(b1-3)[Fuc(a1-3)GlcNAc(b1-6)]Gal(b1-4)Glc
# How it was run: as §1
# [29] = biological target: Gal(b1-4)GlcNAc(b1-3)[Gal(b1-4)GlcNAc(b1-6)]Gal(b1-4)GlcNAc
# How it was run: as §1
# [30] = biological target: Gal(b1-4)GlcNAc(b1-3)[GlcNAc(b1-6)]Gal(b1-4)GlcNAc
# How it was run: as §1
# [31] = biological target: Gal(b1-4)GlcNAc(b1-6)Gal(b1-4)GlcNAc
# How it was run: as §1
# [32] = biological target: Gal(b1-4)GlcNAc(b1-6)GalNAc
# How it was run: as §1
# [33] = biological target: Gal(b1-4)GlcNAc(b1-6)[Gal(b1-3)]GalNAc
# How it was run: as §1
# [34] = biological target: Gal(b1-4)GlcNAc(b1-6)[Gal(b1-4)GlcNAc(b1-3)]GalNAc
# How it was run: as §1
# [35] = biological target: Gal(b1-4)GlcNAc6P
# How it was run: as §1
# [36] = biological target: Gal(b1-6)Gal
# How it was run: as §1
# [37] = biological target: Gal3S(b1-3)GalNAc
# How it was run: as §1
# [38] = biological target: Gal3S(b1-3)GlcNAc
# How it was run: as §1
binder,measurement,setting,value
"Epa6 (Candida glabrata), Q6DTM7_CANGB (protein) MGSSHHHHHHSSGLVPRGSHMKDDYSSSLSNNNLGWTDPTEFPLGCSPNVTTPKNGLSMELYSYDYLKSGSNPCWDAAYLDPNYPRTGYKSHRLLAKVENVAGNINFYYHAPMGCTSLFDTLPQAYNYRTPLTMTNFTMLLYGYFKPKVTGYHTFTISADDLLFVNFGAGNAFDCCKRESSADDFGNYQAYAVWGSQTAKDDLTVHLDAGLYYPIRIFFNNRDNDGALSLTLKTESDPNPVIDFSDYFYSFDDTKDGCPGLVSYDTS",glycan array binding signal (z-score),[1],-0.125
same,glycan array binding signal (z-score),[2],-0.236
same,glycan array binding signal (z-score),[3],-0.147
same,glycan array binding signal (z-score),[4],-0.203
same,glycan array binding signal (z-score),[5],-0.26
same,glycan array binding signal (z-score),[6],-0.208
same,glycan array binding signal (z-score),[7],-0.188
same,glycan array binding signal (z-score),[8],-0.085
same,glycan array binding signal (z-score),[9],-0.045
same,glycan array binding signal (z-score),[10],-0.039
same,glycan array binding signal (z-score),[11],0.191
same,glycan array binding signal (z-score),[12],-0.243
same,glycan array binding signal (z-score),[13],0.068
same,glycan array binding signal (z-score),[14],0.016
same,glycan array binding signal (z-score),[15],0.164
same,glycan array binding signal (z-score),[16],0.07
same,glycan array binding signal (z-score),[17],-0.012
same,glycan array binding signal (z-score),[18],0.124
same,glycan array binding signal (z-score),[19],-0.016
same,glycan array binding signal (z-score),[20],-0.014
same,glycan array binding signal (z-score),[21],0.286
same,glycan array binding signal (z-score),[22],0.013
same,glycan array binding signal (z-score),[23],-0.254
same,glycan array binding signal (z-score),[24],-0.214
same,glycan array binding signal (z-score),[25],0.331
same,glycan array binding signal (z-score),[26],-0.186
same,glycan array binding signal (z-score),[27],-0.252
same,glycan array binding signal (z-score),[28],-0.246
same,glycan array binding signal (z-score),[29],-0.078
same,glycan array binding signal (z-score),[30],-0.214
same,glycan array binding signal (z-score),[31],0.042
same,glycan array binding signal (z-score),[32],-0.236
same,glycan array binding signal (z-score),[33],0.781
same,glycan array binding signal (z-score),[34],-0.202
same,glycan array binding signal (z-score),[35],-0.295
same,glycan array binding signal (z-score),[36],1.33
same,glycan array binding signal (z-score),[37],-0.335
same,glycan array binding signal (z-score),[38],-0.277
